These are yes or no findings as the source states them, for the method shown. Sequences can lack the tags named with a protein.

For assay [1], the target named is T1, GST-Atg19(365–415) (S. cerevisiae) (UniProt P35193).
T1 sequence: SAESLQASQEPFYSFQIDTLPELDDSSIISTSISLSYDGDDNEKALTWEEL
The assay is described as follows: microscopy-based protein-protein interaction assay on beads; glutathione beads coated with GST baits at 20 µM, Atg12~Atg5-Atg16-mCherry 5 µM, 25 mM HEPES pH 7.5, 150 mM NaCl, 1 mM DTT, imaged at equilibrium by spinning disc microscopy (Figures 1B, 2F, 2G); both purified.

Assay [2] addresses T2, GST-Atg19(365–407) F376A, F379A, L384A, L387A (S. cerevisiae) (UniProt P35193).
T2 sequence: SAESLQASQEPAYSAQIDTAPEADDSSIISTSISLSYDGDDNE
The assay is described as follows: pull-down; GST-fused bait 20 µM and GST-free prey 5 µM with glutathione Sepharose 4B, 1 hr at 4°C; washed with 25 mM HEPES pH 7.5, 150 mM NaCl, 1 mM DTT; anti-Atg5 Western blot (Figure 2E, Figure 3—figure supplement 1, Figure 4C); both purified.

Assay [3] has as its target T2, GST-Atg19(365–407) F376A, F379A, L384A, L387A (S. cerevisiae). Kind of assay: microscopy-based protein-protein interaction assay on beads; glutathione beads coated with GST-fused proteins at 30 µM, Atg5-mCherry-Atg16 (1–46) 18 µM, equilibrium (Figure 3B, C); both purified.

B1: Atg12~Atg5-Atg16-mCherry complex (complex, UniProt P38316 1-186; Q12380 1-294; Q03818 1-150)
chain 1: MSRILESENETESDESSIISTNNGTAMERSRNNQELRSSPHTVQNRLELFSRRLSQLGLASDISVDQQVEDSSSGTYEQEETIKTNAQTSKQKSHKDEKNIQKIQIKFQPIGSIGQLKPSVCKISMSQSFAMVILFLKRRLKMDHVYCYINNSFAPSPQQNIGELWMQFKTNDELIVSYCASVAFG
chain 2: MNDIKQLLWNGELNVLVSIDPSFLMKGSPREIAVLRIRVPRETYLVNYMPLIWNKIKSFLSFDPLTDSEKYFWFEHNKTPIPWNYPVGVLFDCLAGKSATFTTSFENQVKDVLTFLRIHLVMGDSLPPTIIPIASSKTQAEKFWFHQWKQVCFILNGSSKAIMSLSVNEARKFWGSVITRNFQDFIEISNKISSSRPRHIPLIIQTSRTSGTFRISQPTISMTGVNPTLKDIEGDILDVKEGINGNDVMVICQGIEIPWHMLLYDLYSKLRSFDGFLYITLVPIKGGDKASSEL
chain 3: MGNFIITERKKAKEERSNPQTDSMDDLLIRRLTDRNDKEAHLNELFQDNSGAIGGNIVSHDDALLNTLAILQKELKSKEQEIRRLKEVIALKNKNTERLNDELISGTIENNVLQQKLSDLKKEHSQLVARWLKKTEKETEAMNSEIDGTK
modifications: conjugated to Atg5 (Atg12~Atg5 protein conjugate) | conjugated to Atg12
For B1, in assay [1], the binding result was “no binding (tested: 5 µM)”.

B2: Atg5-Atg16 (1–46) (complex, UniProt Q12380 1-294; Q03818 1-46)
chain 1: MNDIKQLLWNGELNVLVSIDPSFLMKGSPREIAVLRIRVPRETYLVNYMPLIWNKIKSFLSFDPLTDSEKYFWFEHNKTPIPWNYPVGVLFDCLAGKSATFTTSFENQVKDVLTFLRIHLVMGDSLPPTIIPIASSKTQAEKFWFHQWKQVCFILNGSSKAIMSLSVNEARKFWGSVITRNFQDFIEISNKISSSRPRHIPLIIQTSRTSGTFRISQPTISMTGVNPTLKDIEGDILDVKEGINGNDVMVICQGIEIPWHMLLYDLYSKLRSFDGFLYITLVPIKGGDKASSEL
chain 2: MGNFIITERKKAKEERSNPQTDSMDDLLIRRLTDRNDKEAHLNELF
With B2, the binding result in assay [2] is listed as “no binding (tested: 5 µM)”.

B3: Atg5-mCherry-Atg16 (1–46) complex (complex, UniProt Q12380 1-294; Q03818 1-46)
chain 1: MNDIKQLLWNGELNVLVSIDPSFLMKGSPREIAVLRIRVPRETYLVNYMPLIWNKIKSFLSFDPLTDSEKYFWFEHNKTPIPWNYPVGVLFDCLAGKSATFTTSFENQVKDVLTFLRIHLVMGDSLPPTIIPIASSKTQAEKFWFHQWKQVCFILNGSSKAIMSLSVNEARKFWGSVITRNFQDFIEISNKISSSRPRHIPLIIQTSRTSGTFRISQPTISMTGVNPTLKDIEGDILDVKEGINGNDVMVICQGIEIPWHMLLYDLYSKLRSFDGFLYITLVPIKGGDKASSEL
chain 2: MGNFIITERKKAKEERSNPQTDSMDDLLIRRLTDRNDKEAHLNELF
As for B3, the binding result in assay [3] is given as “no binding (tested: 18 µM)”.
